Reference: ChEMBL document CHEMBL1201862, “PubChem BioAssay data set” (2004)

Test system: NCI-H322M
Assay: growth of human tumour cells (NCI), 48 h

Compound | GI50
CCOc1c(Cc2ccccc2)c(=O)n2c3ccccc3n3c(=O)n(C)c(=O)c1c23 | inactive: > 100 µM
C#CC1(O)CCC2C3CCc4cc(Oc5nc(F)nc(-c6c7ccccc7c7n6CCS7)n5)ccc4C3CC[C@@]21C (stereo not given in full) | inactive: 32 µM
CC(C)=CCC[C@@H](C)C1=C(N)C(=O)C(C)=C(O)C1=O | inactive: 46.7 µM
CC(=O)NC1C(CO)O[C@@H]2OC(C)(C)O[C@H]12 (stereo not given in full) | inactive: > 100 µM
COc1cc(C2c3cc(O)c(OC)cc3C3OCC2C3CO)ccc1O (stereo not given) | inactive: > 100 µM
Cc1nc(N)c(-c2ccccc2)s1 | inactive: 40 µM
COC1(OC)CC(CO)(COc2cc(Cl)nc(N)n2)C1 | inactive: > 100 µM
OC[C@H]1CC(c2nn[nH]n2)[C@H](O)[C@@H]1O (stereo not given in full) | inactive: > 100 µM
CN(C)Cc1cc(/N=N/c2ccccc2)ccc1O | inactive: 57 µM
O=[N+]([O-])C(=C1NCCN1)/C(Cl)=C(\Cl)Br | inactive: > 100 µM
O=C1C2SC34c5c2c2ccccc2n5CCC3CCCN14 (stereo not given) | inactive: > 100 µM
CC(C)C(=O)NS(=O)(=O)c1ccccc1 | inactive: > 100 µM
Cc1cc(Cl)ccc1NC(=O)C(=O)C(C(=O)c1ccc2ccccc2c1)C1OC(=O)c2ccccc21 (stereo not given) | inactive: 8.39 µM
CCCN(CCC)C(=O)C(=O)c1c(N)[nH]n(-c2ccccc2)c1=O | inactive: 74.8 µM
O=C1CCCC2=C1C(c1ccc3c(c1)OCO3)Nc1ccc3ccccc3c12 (stereo not given) | inactive: > 100 µM
C=C1CC2(CC(c3ccccc3OC)OC(c3ccccc3OC)C2)OC1=O (stereo not given) | inactive: 15.1 µM
C[C@H]1[C@H](C)CC[C@]2(C(=O)OC3OC(CO)C(O)C(O)C3O)CC[C@]3(C)C(=CC[C@@H]4[C@@]5(C)C[C@H]6OC(=O)c7cc(O)c(O)c(O)c7-c7c(cc(O)c(O)c7O)C(=O)O[C@@H]6C(CO)(CO)[C@@H]5CC[C@]43C)[C@H]12 (stereo not given in full) | inactive: 37.6 µM
Cn1cc(NC(=O)c2cc(NC(=O)CCCCCCCCC(=O)Nc3cc(C(=O)Nc4cc(C(=O)NCCC(N)N)n(C)c4)n(C)c3)cn2C)cc1C(=O)NCCC(=N)N | inactive: 17.4 µM
Cc1ccc(C2(O)CC(c3ccc([N+](=O)[O-])o3)=NN2C(=O)COc2ccccc2Cl)cc1 (stereo not given) | inactive: 13.6 µM
CC(C)=CC1CCc2ccccc2N1S(=O)(=O)c1ccc(C)cc1 (stereo not given) | inactive: 1.24 µM
NC(Cc1ccnnc1)C(=O)O (stereo not given) | inactive: > 100 µM
CCOC(=O)C1(C/C=C\CBr)CCCC1=O (stereo not given) | inactive: > 100 µM
CC1(C)Cc2c(oc3ncnc(N)c23)CS1 | inactive: > 100 µM

Compound | GI50
CN(C)c1ccc(/C=C2\C[C@H]3[C@@H]4CCc5cc(OCCN6CCCC6)ccc5[C@H]4CC[C@]3(C)C2=O)cc1 | inactive: 2.06 µM
O=C1C(Cl)N(c2cccc([N+](=O)[O-])c2)C1c1c[nH]c2ccccc12 (stereo not given) | inactive: 18.3 µM
Cc1ccc(N2C(=O)C(=O)N(/N=C3\C(=O)Nc4ccccc43)C2=S)cc1 | inactive: > 100 µM
CCN(CC)CCO/N=C1/C=C2CCC3C(CC[C@@]4(C)C3CC[C@]4(C)O)[C@@]2(C)CC1 (stereo not given in full) | inactive: 6.61 µM
CCN(CC)CCCNc1nccc2c(C)c3[nH]c4ccncc4c(=O)c3cc12 | active: 1.1 µM
O=S(=O)(c1ccccc1)[C@H]1[C@@H]2O[C@@H]2C[C@@H]1O | inactive: > 100 µM
Cc1ccc(S(=O)(=O)C(CC(=O)N2CCCC2)C(=O)c2ccccc2)cc1 (stereo not given) | inactive: > 100 µM
Cc1ccc(Nc2ncnc3sc(SCc4ccccc4)nc23)cc1 | inactive: > 100 µM
O=C(O)c1cc(NC2=C(Cl)C(=O)c3c(O)ccc(O)c3C2=O)ccc1O | inactive: > 10 µM
CC(C)(C)NC1C2CCC(C)(C1O)C2(C)C (stereo not given) | inactive: > 100 µM
O=C(O)C1Cc2ccccc2OC1=O (stereo not given) | inactive: > 100 µM
O=c1c2nc[nH]c2n(-c2ccccc2)c(=S)n1-c1ccccc1 | inactive: > 100 µM
COC(=O)C(CCSc1ccccc1)C(=O)OC | inactive: > 100 µM
OC(c1cc(C(O)(C(F)(F)F)C(F)(F)F)ncn1)(C(F)(F)F)C(F)(F)F | inactive: > 10 µM
CCN1C[C@]2(C)CC[C@H](O)C34C1C(C[C@@H]32)[C@@]1(O)CC[C@H]2C[C@@H]4[C@@H]1[C@H]2O | inactive: > 100 µM
CC1=C2C(=CC(C)(C)C2O)C(=O)C(C)(O)C12CC2 (stereo not given) | active: 0.0395 µM
CC(=O)O[C@@H]1CC(C)C2CC2C2=C(C(O)OC2O)[C@@H]1C(C)CCC=C(C)C (stereo not given in full) | inactive: 26.5 µM
CC(=O)OC[C@H]1[C@@H]2C(CC[C@]13CO3)OC(=O)CC(C)[C@]2(C)CCc1ccoc1 (stereo not given in full) | inactive: > 100 µM
CC(=O)[C@]1(O)Cc2c(O)c3c(c(O)c2C(OC2OC(C)C(O)C(O)C2F)C1)C(=O)c1ccccc1C3=O (stereo not given in full) | active: 0.544 µM
CC(=O)c1cc2c(s1)C(=O)c1scc(C(C)=O)c1C2=O | active: 0.469 µM
COc1ccc2cc3[n+](cc2c1OC)CCc1cc(O)c(O)cc1-3 | inactive: > 100 µM
CCN(CC)CCNc1ccc2ncn3c4cc(OC)c(OC)c(O)c4c(=O)c1c23 | inactive: 4.06 µM

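48-hour exposure; five concentrations; linearly interpolated endpoints. GI50 marks 50% less growth.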 Calls of active or inactive are those of the source. No stated cut-off is given here; in the data, active = GI50 up to about 1.1 µM and inactive = higher.
